Data on 22 molecules can be found in publication PMC12136788.

This is one part of the list.

First the molecules themselves.
T1: UNK ZnF1-3 (human, UniProt Q9C0B0 31-174)
T1 sequence: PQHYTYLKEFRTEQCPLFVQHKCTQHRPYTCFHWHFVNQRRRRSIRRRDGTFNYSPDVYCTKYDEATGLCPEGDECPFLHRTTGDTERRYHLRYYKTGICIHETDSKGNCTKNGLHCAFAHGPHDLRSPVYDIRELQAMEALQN

B1: 41342749_41343464_1019_CDS_ENSG00000188554_ENST00000341165|human|control|control (ssRNA)
RNA: GGGAGUUCUACAGUCCGACGAUCUUUACGUUGUUUCUUCUCAGCUCGCAACCUUUGCUUUUCUGCUUUAAGAAAGUUCUUAUCAACCUGUUUCUGGAGCCUGACUUGUUCCAGAGCAGCAGGAAGACGAGGAGUAGAGUACUUCAACAGAGGAUUGAGCAUCA
B2: chr4:57314706:57314707:+_ENSG00000128050_ENST00000264221|hu_mus|hu_hu_hu_mus_True|48_108 (ssRNA)
RNA: GGGAGUUCUACAGUCCGACGAUCCAGUAUUUCAAAUAUAGCUUGUGUGGCAUGACUCAUGAUGUCCACUUCAGUCUGCCCUAUAACAAGUCCAGCAAAACAGAAUUUUGCAGCAAUGAGUUGCUCCUCAGACCACUGUGGAUCCAACAGAGGAUUGAGCAUCA
B3: chr9:100410314:100410315:+_ENSG00000136937_ENST00000375147|hu_mus|motif|central (ssRNA)
RNA: GGGAGUUCUACAGUCCGACGAUCGUGCCUCUCCUGCCACCGGUCUUUUUUCAAUUUCUGAAUCUGGGCCCACAGGCAAUCGGAAUACUCUUCCUGUGGAUGUGGUUUGUCGGCAGUCCAGACUUGUAACAUGGGCACGUGAGUCAACAGAGGAUUGAGCAUCA
B4: chr9:88289291:88289292:-_ENSMUSG00000032422_ENSMUST00000140439|mus_mus|motif|central (ssRNA)
RNA: GGGAGUUCUACAGUCCGACGAUCUCCUUCUUCUCUUUCCUUUCAGAGGAGGGAUCUUCAAAAAAGUCUACAUACGGAAUGCGGAUUUUCCAGGCAGCAAGGUUUCGAGGAGUGUUAGGUGUGCUCACAGCUUCUACUGGAGAGCAACAGAGGAUUGAGCAUCA
B5: 107592600_107594026_3344_CDS_ENSG00000091136_ENST00000393561|human|control|control (ssRNA)
RNA: GGGAGUUCUACAGUCCGACGAUCUUUGUCGCACUGGCAGUCAGAGCCGUUACAGUGCUCUUGCACGGUGCCCAGGUAAUUACAGACACACUUUCGACAGUCCUGCUGGAGGGCAUCACCAUAGUAUCCAAACCGGCAGAACUGCAACAGAGGAUUGAGCAUCA
B6: chr1:150204246:150204247:-_ENSG00000143401_ENST00000314136|hu_mus|FALSE|FALSE (ssRNA)
RNA: GGGAGUUCUACAGUCCGACGAUCAAAGGUGUCAUUCAGGCCUUCGAUUUCCCCAUUGACACACAAGCAAUUAUCGAGGACUAACUCUGUCACCUCCUCCGGGGCUCUGUUCUUCAACUCCAUGUUAAUCUUCUUCUUCAUCUCCAACAGAGGAUUGAGCAUCA
B7: chr4:99997899:99997900:-_ENSG00000197894_ENST00000296412|hu_hu|FALSE|FALSE (ssRNA)
RNA: GGGAGUUCUACAGUCCGACGAUCAGGCUCCAACUUGGCAGUGUUCACAGCAGCACCAUAACCGGUUGAAAUGCCACAACCUAGAAGGCAGACUUUAUCCAAAGGUGCUAAAGGAUCUAUUUUAGCAACAGAGAUAUCAGCCACCAACAGAGGAUUGAGCAUCA
B8: chr16:57506169:57506170:-_ENSG00000125170_ENST00000340099|hu_hu|FALSE|FALSE (ssRNA)
RNA: GGGAGUUCUACAGUCCGACGAUCGCCACAACUCAAAUAGUGGUUAUUUACAAGAAGGUCUGUUCCCACAAAUCAGGACCCUAAAGUAUUAAAAAACAAAACCCAAAAAACAACAAAAAACCCCACACAACCAAAAGUUUGACGCAACAGAGGAUUGAGCAUCA
B9: chr6:79679595:79679596:-_ENSG00000146247_ENST00000275034|hu_mus|FALSE|FALSE (ssRNA)
RNA: GGGAGUUCUACAGUCCGACGAUCUAUAUUCCAUCGUCUAUACUUUGCAUCAUCAAAUUGUUGUCUCAAGACUAGAAAAUCUAUGACGUCAGGCAUAUCAUGGUAUUUCAUGGUAAAUGAUCCACCGGUCAGUUUGCCAGUAUCCAACAGAGGAUUGAGCAUCA
B10: chr16:94690093:94690094:+_ENSMUSG00000040785_ENSMUST00000117648|mus_hu|mus_mus_mus_hu_True|68_108 (ssRNA)
RNA: GGGAGUUCUACAGUCCGACGAUCGGGGACUCCUGUGGGACACACAGCCUCGAUUCCAGGGGGAAAAAAAAAUAGCCGAUACUAAUUAAAAAGUGUUAAUGAUUUUUGAAAAUCAGAUUACAUCUAUAAAAGAUGAAAAGCAAACAACAGAGGAUUGAGCAUCA
B11: 64290231_64290351_1254_3pUTR_ENSG00000112245_ENST00000370650|human|control|control (ssRNA)
RNA: GGGAGUUCUACAGUCCGACGAUCACUGCAUGAUUUGGGGAAAGGUCAAUUGAUACAAAUGACAAGCACAUUUUAUAUGCUGACAGCAAGAAUCUUUUGCCAAGUAUCCAAAUAGGUUGACUGUAACCCAAAUACAGAGGUUGCCAACAGAGGAUUGAGCAUCA
B12: chr2:47389482:47389483:-_ENSG00000143933_ENST00000272298|hu_hu|FALSE|FALSE (ssRNA)
RNA: GGGAGUUCUACAGUCCGACGAUCUUCUGCAGCACUAAUAUAGCCAUUGCCAUCCUUAUCAAACACACGGAAUGCUUCUCUAAUUUCUUCUUCACUGUCUGUGUCUUUCAUUUUUCUUGCCAUCAUUGUCAGAAAUUCAGGGAACAACAGAGGAUUGAGCAUCA
B13: chr2:35037708:35037709:-_ENSMUSG00000026878_ENSMUST00000028238|mus_mus|FALSE|FALSE (ssRNA)
RNA: GGGAGUUCUACAGUCCGACGAUCUUACAAGAGUUGUUUUUUCUUUUUUCUUUUUUUAAUUAAACCCAGUAAGAUGUACAGAAGACAAGGAGGCAGUAAAAAGUACUGCUUCCAACAGACAGAGGUGAAAGGUCAAAUGAGGGGCAACAGAGGAUUGAGCAUCA
B14: chr1:174129369:174129370:-_ENSMUSG00000013698_ENSMUST00000013842|mus_hu|FALSE|FALSE (ssRNA)
RNA: GGGAGUUCUACAGUCCGACGAUCACGGGUUCUGUAGUCAACCACCAUAGUGAGUAGGUCAGGACGGCGGGAGAUCUCAAAGAUGUGCUCAAUGUAGGAGAGGUUGUCUUUGUCCAGCUUGUUGUGGCUCUCCAGGAAGCUAAACAACAGAGGAUUGAGCAUCA
B15: chr1:220369670:220369671:-_ENSG00000118873_ENST00000358951|hu_hu|FALSE|FALSE (ssRNA)
RNA: GGGAGUUCUACAGUCCGACGAUCGAAGCCAGUAAAUGGAUUGGACCCUACAGUGAUAUACUGAGACAUGGCAGGUGGACUAUUUUUAAUUGCUGCAUUAAAUCCACCUAUAUUGGAGGCAGUCUUCAUUUGAUCAAAGGGGGACAACAGAGGAUUGAGCAUCA
B16: chrX:109746815:109746816:+_ENSMUSG00000025529_ENSMUST00000071814|perfect_dup|motif|central (ssRNA)
RNA: GGGAGUUCUACAGUCCGACGAUCUGUUUUAAAGUCACAGUGCCUGCACUGAUGAAUCUUCCUACCCUUAUGGAUAUCACGGUGCUUUUUGAGCUCAGAAGGACGAUGAAAACCUUUAUCACAGACCUCACAUUUGUGAGGAAACAACAGAGGAUUGAGCAUCA
B17: chr1:60041781:60041782:+_ENSMUSG00000041040_ENSMUST00000036540|mus_hu|mus_mus_mus_hu_False|68_108 (ssRNA)
RNA: GGGAGUUCUACAGUCCGACGAUCAAGAGGAGUGAAUUAAAGUAAAUGCAGUAGUGGCAAAUUUUCUUUACUUUAGUUUCACAAAAGAAAAUCUUUAUAACCCAGUCCUAGUCUUGGACAUAGUGAAAGCUAUAAAUUCUGACUCAACAGAGGAUUGAGCAUCA
B18: chr11:77336104:77336105:-_ENSG00000074201_ENST00000525064|hu_mus|hu_hu_hu_mus_False|78_78 (ssRNA)
RNA: GGGAGUUCUACAGUCCGACGAUCCUCACACAUUGCUGUGAACAUCGCCUCCAAUGCUGAUUUAUCACUGGGCACAAAUCGAAAUUCAGAAAUGGGUUCAACAUCAUCAUUGUCUUCCUCAUCUUCAUCAGAGAGAGGUUCUUUCAACAGAGGAUUGAGCAUCA
B19: chr18:52894491:52894492:-_ENSG00000196628_ENST00000354452|hu_hu|FALSE|FALSE (ssRNA)
RNA: GGGAGUUCUACAGUCCGACGAUCAAAAAAAAAAAAUCCAUAUUUACAGUAAAAUCUUUCUUUUAAAAAAGUUAAUCAGUACUAUUUUUUUACAGGAGAAAAAAGUCUGAAACAAAUGAACAAAAGCUUACCAUAGUCACUAAACAACAGAGGAUUGAGCAUCA
B20: chr5:124911765:124911766:+_ENSMUSG00000049327_ENSMUST00000059580|mus_hu|FALSE|FALSE (ssRNA)
RNA: GGGAGUUCUACAGUCCGACGAUCGUGUCUGACAAACACAAGGCCUCGACAGCAGGUCUGGAACUUUCAACCCCAGCAGGAUGAGGGGGAAUGGGGGUGGAUGUCAGGUAAGUAAUUUCUGGUCCCACUACAAAACUUUAUUUUCAACAGAGGAUUGAGCAUCA
B21: chr19:12856456:12856457:+_ENSG00000198356_ENST00000357332|hu_mus|motif|central (ssRNA)
RNA: GGGAGUUCUACAGUCCGACGAUCCACGAUGGUCGGGAAGUUCAGGAGCCUGAGUGUAUGGCCGGUGGGUGCUGUGUCGAACACGGCCACUGAGAAGUUCAUGCCUUUCACCAGCCUCAUGACCUCAGCAUAACUCAUGGCUUCCAACAGAGGAUUGAGCAUCA
B22: chr9:24234919:24234920:-_ENSMUSG00000043067_ENSMUST00000142064|mus_mus|FALSE|FALSE (ssRNA)
RNA: GGGAGUUCUACAGUCCGACGAUCGUAAACCAACUCUCCAUGUUCAAAUUGUUGUUUUCUUGUAUGUGUCCGUUGUUUAGCUACGACACCCCGCAUAUCAUUAAAAAUCUUUCUAACAAUGGCAGCGACGGUGACCAGAACCACCAACAGAGGAUUGAGCAUCA

The experiment concerns the target T1, UNK ZnF1-3. In words: nsRBNS (natural sequence RNA bind-n-seq); RBNS binding buffer (assumed for nsRBNS): 25 mM Tris pH 7.5, 150 mM KCl, 3 mM MgCl2, 0.01% Triton X-100, 500 ug/ml BSA, 20 U/ml SUPERase-In, 4 C; UNK is unkempt and MSI1 is Musashi-1; names of the RNAs are library labels; protein concentration not given here; high values mean tight binding.
In turn, B1 showed a binding signal of 0.48 enrichment R. B2 displayed a binding signal of 0.904 enrichment R. The figure for B3 is 0.644 enrichment R; for B4 it is 1.19 enrichment R. For B5 the value was 0.561 enrichment R; for B6, 0.657 enrichment R; for B7, 1.44 enrichment R. The molecule B8 had a binding signal of 2.51 enrichment R.

B9 gave a binding signal of 0.649 enrichment R. The figure for B10 is 2.96 enrichment R; for B11 it is 1.34 enrichment R; for B12 it is 0.791 enrichment R. For B13 the value was 1.37 enrichment R; for B14, 1.01 enrichment R. For B15 the value was 1.45 enrichment R; for B16, 0.879 enrichment R. Turning to B17, the binding signal is 0.645 enrichment R. Consider B18, for which the binding signal stood at 0.879 enrichment R. For B19 the value was 1.38 enrichment R; for B20, 1.27 enrichment R; for B21, 0.533 enrichment R. For B22 the value was 0.819 enrichment R.
